{"source": "PubChem BioAssay AID624417", "about": "(National Center for Advancing Translational Sciences (NCATS), 2012)", "note": "Among all 410,000 compounds or so, about 6,400 (1.6%) were called active. The inconclusive results got no clear call from the source; some entries with a clear call stand among them for comparison. Calls come from the whole dose curve; as a rule, active = well fitted inhibition curve with a large enough effect; inconclusive = small, poorly fitted or top-dose-only effect; inactive = no such curve, though single readings can be large or run the other way. No potency is given beside an inconclusive call; the fits are too rough. % is set by controls: 0 for no effect and ±100 for the full control effect; potency is the fitted concentration of half-maximal effect; tags give direction and shape of the fitted curve."}
{"target": "Glucagon-like peptide 1 receptor (Homo sapiens) (UniProt P43220)", "sequence (P43220 whole entry, looked up)": "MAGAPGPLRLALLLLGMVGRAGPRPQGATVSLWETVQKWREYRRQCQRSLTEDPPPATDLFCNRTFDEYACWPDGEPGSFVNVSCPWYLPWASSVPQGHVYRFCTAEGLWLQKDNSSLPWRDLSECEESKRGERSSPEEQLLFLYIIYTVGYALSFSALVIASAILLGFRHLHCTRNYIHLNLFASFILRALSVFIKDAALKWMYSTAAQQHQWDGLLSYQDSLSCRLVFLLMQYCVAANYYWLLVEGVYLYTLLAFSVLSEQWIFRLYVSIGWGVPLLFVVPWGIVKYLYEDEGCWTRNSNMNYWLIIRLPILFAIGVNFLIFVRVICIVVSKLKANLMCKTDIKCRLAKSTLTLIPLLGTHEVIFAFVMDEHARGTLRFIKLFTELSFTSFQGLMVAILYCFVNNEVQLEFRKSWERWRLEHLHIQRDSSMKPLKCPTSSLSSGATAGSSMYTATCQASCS", "assay": "qHTS of GLP-1 Receptor Inverse Agonists (Inhibition Mode); note: nearly all actives have a fitted effect of over 55% in size", "details": "HEK293 GLP-1R CRE-luciferase, luminescence, 24 h, GLP-1R form is constitutively active; activity change, negative = inhibition: at 38.3 µM (top of the series) unless noted", "method_in_brief": "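Readout was luciferase luminescence, measured 12 min after detection reagent at room temperature. Beforehand, GLP-1R reporter HEK293 cells had sat 12 h, then received compounds for 24 hr at 37 deg C.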"}
{"smiles": "COc1cccc(CN(C)C(c2ccccc2)c2ccccc2)c1OC", "Potency": "inconclusive [inhibitor, partial curve, poor fit]"}
{"smiles": "COc1cc(CNC(C)C23CC4CC(CC(C4)C2)C3)ccc1OCC(=O)NC(C)(C)C", "note": "(centres undefined)", "Potency": "inconclusive [inhibitor, partial curve, poor fit]"}
{"smiles": "CCN1C(C(=O)c2ccccc2)=C(OC(=O)COc2ccc(C)cc2)c2ccccc2S1(=O)=O", "Potency": "inconclusive [inhibitor, single point]"}
{"smiles": "O=C(OCC(O)C1OC(c2ccccc2)OC(COC(=O)c2ccccc2)C1O)c1ccccc1", "note": "(centres undefined)", "Potency": "inconclusive [inhibitor, single point]"}
{"smiles": "Cc1c(C(=O)Nc2cc(F)cc(F)c2)cnn1-c1ccccc1", "Potency": "inconclusive [inhibitor, single point]"}
{"smiles": "O=C(Nc1ccc(F)cc1)Nc1csc2c1CCCC2", "Potency": "inconclusive [inhibitor, single point]"}
{"smiles": "C[C@@H]1CN([C@H](C)CO)C(=O)c2cc(NC(=O)Nc3cccc4ccccc34)ccc2O[C@H]1CN(C)Cc1ccc(C(F)(F)F)cc1", "Potency": "inconclusive [inhibitor, partial curve, poor fit]"}
{"smiles": "COc1cccc(CN2CCC2(C)C(=O)Nc2ccc3c(c2)OCO3)c1F", "note": "(centres undefined)", "Potency": "inconclusive [inhibitor, single point]"}
{"smiles": "CC(C)C[C@H]1CNC(=S)N1C[C@H]1CCCN1C[C@H](Cc1ccc(O)cc1)N1C[C@H](Cc2ccccc2)N(CCc2ccccc2)C1=S", "Potency": "inconclusive [inhibitor, single point]"}
{"smiles": "Cc1ccc(C(=O)NC(=S)/C=C2\\N(C)c3ccccc3C2(C)C)cc1", "Potency": "inconclusive [inhibitor, single point]"}
{"smiles": "O=C(NC1=C(NC2CCS(=O)(=O)C2)C(=O)c2ccccc2C1=O)c1ccccc1", "note": "(centres undefined)", "Potency": "inconclusive [inhibitor, single point]"}
{"smiles": "Fc1nc(F)c(F)c(NCCCNc2c(F)c(F)nc(F)c2F)c1F", "Potency": "inconclusive [inhibitor, single point]"}
{"smiles": "COc1ccc(N2CCN(CCCNC(=O)C3COc4ccccc4C3)CC2)cc1", "note": "(centres undefined)", "Potency": "inconclusive [inhibitor, single point]"}
{"smiles": "O=c1c2ccccc2ncn1Cc1ccc(Cl)c(Cl)c1", "Potency": "inconclusive [inhibitor, single point]"}
{"smiles": "Cc1ccc(S(=O)(=O)NC(CC(C)C)C(=O)N2CCCCCCC2)cc1", "note": "(centres undefined)", "Potency": "inconclusive [inhibitor, partial curve, poor fit]"}
{"smiles": "Cc1cc(=O)[nH]c(NN=Cc2cc(Br)ccc2O)n1", "Potency": "inconclusive [inhibitor, full curve, poor fit]"}
{"smiles": "O=C(NCC(c1ccco1)N1CCCCC1)C(c1ccccc1)c1ccccc1", "note": "(centres undefined)", "Potency": "active: 11.2 µM"}
{"smiles": "CCn1c(C)c(C)c2cc(C(=O)NCC(C)c3ccccc3)ccc21", "note": "(centres undefined)", "Potency": "inconclusive [inhibitor, single point]"}
{"smiles": "CN(Cc1cccc(F)c1)C(=O)c1cccc(S(=O)(=O)N2CCN(Cc3ccccc3)CC2)c1", "Potency": "inconclusive [inhibitor, single point]"}
{"smiles": "CN(CC(=O)NCC(=O)Nc1ccc(F)cc1)CC(=O)Nc1ccc(Cl)c(C(F)(F)F)c1", "Potency": "inconclusive [inhibitor, partial curve, poor fit]"}
{"smiles": "CCCCCCSC1=C(C#N)C(c2ccccc2)CC(=O)N1", "note": "(centres undefined)", "Potency": "inconclusive [inhibitor, partial curve, poor fit]"}
{"smiles": "CCC(c1nnnn1-c1ccc2c(c1)OCCO2)N1CCN(C/C=C/c2ccccc2)CC1", "note": "(centres undefined)", "Potency": "inconclusive [inhibitor, partial curve]"}
{"smiles": "CC(C)NC(=S)NN=C1c2ccccc2-c2ccccc21", "Potency": "inconclusive [inhibitor, partial curve, poor fit]"}
{"smiles": "CCNc1nc(NCC)nc(N(C#N)C(C)C)n1", "activity change, negative = inhibition": "inactive: 129%"}
{"smiles": "CCOCCc1nnc(NC(=O)C(=O)c2cc(C)n(-c3ccc(C)cc3C)c2C)s1", "Potency": "inconclusive [inhibitor, single point]"}
{"smiles": "O=C(NCCCN1CCC(Cc2ccccc2)CC1)C1CC(=O)N(C2CCCCCC2)C1", "note": "(centres undefined)", "Potency": "inconclusive [inhibitor, partial curve]"}
{"smiles": "Fc1ccc(CSc2nnc(CN3CCOCC3)n2-c2ccccc2)c(Cl)c1", "Potency": "inconclusive [inhibitor, partial curve]"}
{"smiles": "CCc1ccccc1Nc1nn2c(=O)c3ccc(C(=O)NCCC4=CCCCC4)cc3nc2s1", "Potency": "inconclusive [inhibitor, full curve]"}
{"smiles": "CCCC(=O)Nc1cccc(OCc2cc(=O)n3cccc(C)c3n2)c1", "activity change, negative = inhibition": "inactive: -8.17%"}
{"smiles": "C[C@H]1CN([C@@H](C)CO)S(=O)(=O)c2ccc(/C=C/c3ccccc3)cc2O[C@H]1CN(C)C(=O)NC1CCCCC1", "Potency": "inconclusive [inhibitor, partial curve, poor fit]"}
{"smiles": "CCN1CCN(CCNC(=O)CCc2c(C)c3c(C)nn(-c4ccccc4)c3n(C)c2=O)CC1", "Potency": "inconclusive [inhibitor, single point]"}
{"smiles": "CCC1(C)C(Nc2c(C)cccc2C)=NC(=S)N1c1ccc(NC(C)=O)cc1", "note": "(centres undefined)", "activity change, negative = inhibition": "inactive: -14%"}
{"smiles": "O=C(NCCc1ccccc1)c1cc(Nc2ccccc2)nc2ccccc12", "Potency": "inconclusive [inhibitor, partial curve, poor fit]"}
{"smiles": "O=C(NCCC1=CCCCC1)NC1CCCCC1", "Potency": "inconclusive [inhibitor, single point]"}
{"smiles": "COc1cccc(NC(=O)Cc2nnc(SCC(=O)NC(C)c3ccccc3)n2C)c1", "note": "(centres undefined)", "activity change, negative = inhibition": "inactive: 6.39%"}
{"smiles": "Clc1ccc(CNc2cnccn2)cc1Cl", "activity change, negative = inhibition": "inconclusive: -63.4% [inhibitor]"}
{"smiles": "Cc1ccccc1-c1noc(CSc2nc3ccccc3[nH]2)n1", "Potency": "inconclusive [inhibitor, single point]"}
{"smiles": "Cc1ccc(Cl)cc1NC(=O)CN1C(=O)NC2(CCCCCC2)C1=O", "Potency": "inconclusive [inhibitor, single point]"}
{"smiles": "COCCCn1c(SCc2cccc(Cl)c2)nc2c(sc3ccccc32)c1=O", "activity change, negative = inhibition": "inactive: 21.3%"}
{"smiles": "CC(C)CNC1=C(C(=S)Nc2ccccc2)C(=O)CC(C)(C)C1", "Potency": "active: 3.98 µM"}
{"smiles": "CCOc1ccccc1NC(=S)N1CCC(c2nc3ccccc3o2)CC1", "activity change, negative = inhibition": "inactive: -26.3%"}
{"smiles": "COc1cc(/C=C2/SC(=NCc3ccccc3)N(Cc3ccccc3)C2=O)ccc1O", "Potency": "inconclusive [inhibitor, single point]"}
{"smiles": "CCOc1ccccc1CNC(=O)c1cc2c(=O)n(Cc3cccnc3)ccc2nc1C", "activity change, negative = inhibition": "inactive: 8.43%"}
{"smiles": "COc1cccc(CNCCc2c[nH]c3ccccc23)c1OCc1ccc(F)cc1", "Potency": "inconclusive [inhibitor, partial curve, poor fit]"}
{"smiles": "CC1CCN(Cc2c(C(=O)N/N=C/c3ccccc3O)nnn2-c2nonc2N)CC1", "Potency": "inconclusive [inhibitor, partial curve]"}
{"smiles": "OC(COCC1COc2ccccc2O1)CN1CCN(c2ccc(F)cc2)CC1", "note": "(centres undefined)", "Potency": "inconclusive [inhibitor, single point]"}
{"smiles": "Cc1ccc(C2=NS(=O)(=O)N(C)C(C(=O)NCc3ccc4c(c3)OCO4)=C2)cc1", "activity change, negative = inhibition": "inactive: -35.4%"}
{"smiles": "O=C(COC(=O)/C=C/C(=O)N1CCN(c2ccccc2)CC1)NC(c1ccccc1)c1ccccc1", "activity change, negative = inhibition": "inactive: -21.1%"}
{"smiles": "Cc1cc(C)c2c(n1)nn1c(NCCCN(C)C)cc(C)nc21", "activity change, negative = inhibition": "inactive: -21.2%"}
{"smiles": "CCCCc1ccc(NC(=S)N2CCN(C(=O)c3ccco3)CC2)cc1", "Potency": "inconclusive [inhibitor, partial curve, poor fit]"}
{"smiles": "O=C(Cn1cnc2ccccc2c1=O)Nc1ccc2c(c1)OCCO2", "activity change, negative = inhibition": "inactive: 6.39%"}
{"smiles": "O=C(Nc1nnc(-c2ccccc2Cl)o1)c1ccc(S(=O)(=O)N2CCCCCC2)cc1", "Potency": "inconclusive [inhibitor, partial curve, poor fit]"}
{"smiles": "O=C(Nc1nc2c(s1)CCCC2)c1cc2n(n1)C(C(F)(F)F)CC(C1CC1)N2", "note": "(centres undefined)", "Potency": "inconclusive [inhibitor, full curve, poor fit]"}
{"smiles": "Cc1cccc(C2c3[nH]c4ccccc4c3CCN2Cc2ccc(C)s2)n1", "note": "(centres undefined)", "Potency": "inconclusive [inhibitor, full curve]"}
{"smiles": "OC[C@@H]1CN(C2CCCC2)C[C@H](n2cnc3c(NC4CCC4)ncnc32)O1", "activity change, negative = inhibition": "inactive: -2.75%"}
{"smiles": "CCCc1cc(C(=O)Nc2cnn(Cc3ccc(F)cc3)c2)no1", "Potency": "inconclusive [inhibitor, single point]"}
{"smiles": "CC(C)NC(=S)N1CCN(S(=O)(=O)c2cccc(C(F)(F)F)c2)CC1", "Potency": "inconclusive [inhibitor, partial curve, poor fit]"}
{"smiles": "C=CCNC(=S)N1CC2(C)CN(C(=S)NCC=C)CC(C)(C1)C2=O", "activity change, negative = inhibition": "inactive: 2.92%"}
{"smiles": "CC1CCCC(C)N1C(=O)COC(=O)Cc1c[nH]c2ccccc12", "note": "(centres undefined)", "Potency": "inconclusive [inhibitor, single point]"}
{"smiles": "CN(NC(=O)c1ccc(Cl)cc1)c1ncc(C(F)(F)F)cc1Cl", "Potency": "inconclusive [inhibitor, partial curve, poor fit]"}
{"smiles": "CN(C(=O)c1ccc(NC(=O)C2CCCN(C(=O)OC(C)(C)C)C2)cc1)C1CCC1", "note": "(centres undefined)", "activity change, negative = inhibition": "inactive: 10.1%"}
{"smiles": "O=S(=O)(NCC(c1ccccc1)N1CCNCC1)c1ccc(Cl)cc1", "note": "(centres undefined)", "Potency": "inconclusive [inhibitor, single point]"}
{"smiles": "CC(C)C(=O)N1CCN(c2ccc(NC(=S)NC(=O)c3cc4ccccc4o3)cc2)CC1", "activity change, negative = inhibition": "inactive: 1%"}
{"smiles": "CC(=O)N(C(C)=O)c1ccc(Oc2ccc(Oc3ccc(N(C(C)=O)C(C)=O)cc3)cc2)cc1", "Potency": "inconclusive [inhibitor, single point]"}
